Measured values: the supplement of paper PMC9334596
Where “and” joins values, the source holds several entries; their conditions need not be identical. Equal values may be shown once. Over roughly 5,300 compounds, “PER2::LUC luminescence relative to vehicle control” has its median near 0.96; the highest 2% begin near 1.3. Some of the results follow.

Test system: mPer2Luc MEF
Experiment: PER2::LUC luminescence relative to vehicle control (fold of vehicle); higher = higher PER2::LUC reporter signal
Conditions: 10 µM
Summary of the method: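 Mouse embryonic fibroblasts carrying the mPer2Luc reporter were seeded at ~3000 cells per well in 384-well plates, 48 h before compounds from commercial libraries were added at 10 μM. Cells were grown in DMEM with 10% FBS at 37 °C and 5% CO2. Luminescence was read with the ONE-Glo luciferase assay system 24 h and 30 h after treatment, followed by an alamarBlue viability assay. The value is PER2::LUC luminescence as fold of vehicle control.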

SMILES | PER2::LUC luminescence (time after treatment 24 h) | PER2::LUC luminescence (time after treatment 30 h)
CC(N)C(O)c1ccc(O)c(O)c1 (single isomer, unassigned; (-)) | 0.954 | 0.944
CCN(CC)C(=O)N[C@H]1C[C@@H]2c3cccc4[nH]cc(c34)C[C@H]2N(C)C1 | 0.914 | 0.809
Oc1ccc2c3c1O[C@H]1c4c(c5ccccc5n4Cc4ccccc4)C[C@@]4(O)[C@@H](C2)N(CC2CC2)CC[C@]314 | 0.508 | 0.516
CC[C@@]1([C@H]2O[C@H]([C@H]3O[C@@](O)(CO)[C@H](C)C[C@@H]3C)C[C@H]2C)CC[C@H]([C@@]2(C)CC[C@]3(C[C@H](O)[C@@H](C)[C@@H]([C@H](C)[C@H](OC)[C@@H](C)C(=O)O)O3)O2)O1 | 0.239 | 0.183
COc1ccc2c(c1)[C@@]13CCCC[C@H]1[C@@H](C2)NCC3 | 0.648 | 0.893
CC(=O)N1CC[N+](C)(C)CC1 | 0.914 | 0.971
COc1cc2c(c(OC)c1OC)-c1ccc(OC)c(=O)cc1[C@@H](NC(C)=O)CC2 | 0.401 and 1.11 | 0.493 and 1.06
CC[C@@H](CO)NC(=O)[C@@H]1C=C2c3cccc4c3c(cn4C)C[C@H]2N(C)C1 | 0.933 | 0.803
N#C[C@H](O[C@@H]1O[C@H](CO[C@@H]2O[C@H](CO)[C@@H](O)[C@H](O)[C@H]2O)[C@@H](O)[C@H](O)[C@H]1O)c1ccccc1 | 0.914 | 0.91
CC(C)C1CNC(C(=O)O)C1CC(=O)O (stereo not given) | 1.11 | 0.777
CC[C@H](C)/C=C(C)/C=C/C1=CC2=C(Cl)C(=O)[C@](C)(OC(C)=O)C(=O)C2=CO1 | 1.02 | 1.01
C[C@]12CC[C@H](O)CC1=CC[C@@H]1[C@@H]2CC[C@]2(C)C(=O)CC[C@@H]12 | 0.977 and 0.869 | 0.882 and 0.925
CN(C(=O)/C=C/c1ccoc1)[C@@H]1CC[C@@]2(O)[C@H]3Cc4ccc(O)c5c4[C@@]2(CCN3CC2CC2)[C@H]1O5 | 0.966 | 0.901
CC(=O)OC[C@]12CCC(C)=C[C@H]1O[C@@H]1[C@H](O)[C@@H](OC(C)=O)[C@@]2(C)[C@]12CO2 | 0.96 | 0.978
CN1C(=O)CN=C(c2ccccc2)c2cc(Cl)ccc21 | 0.884 | 0.866
Cc1cc([C@@H]2CCCN2C)on1 | 1.13 | 0.883
C=C(C)CN1CC[C@]23c4c5ccc(O)c4O[C@H]2c2[nH]c4ccccc4c2C[C@@]3(O)C1C5 | 1.05 | 1.08
CCCCCCCCCC(=O)O[C@H]1CC[C@H]2[C@@H]3CCC4=CC(=O)CC[C@@H]4[C@H]3CC[C@]12C | 1.07 | 1.05
O=C1C2CC=CCC2C(=O)N1SC(Cl)(Cl)Cl (stereo not given) | 0.981 | 0.905
CC(=O)O[C@H]1CC[C@@]2(C)C(=CC[C@@H]3[C@@H]2CC[C@]2(C)C(=O)CC[C@@H]32)C1 | 1.07 and 0.953 | 0.957 and 0.847
CC(C)OC(=O)[C@H](C)N[P@](=O)(CO[C@H](C)Cn1cnc2c(N)ncnc21)Oc1ccccc1 | 1.02 | 0.995
O=[N+]([O-])c1ncc[nH]1 | 1.06 | 1.02
CN1C[C@H](CNC(=O)OCc2ccccc2)C[C@@H]2c3cccc4c3c(cn4C)C[C@H]21 | 0.74 | 0.71
O=C(O)CC[N+](=O)[O-] | 0.991 and 1.11 | 1.05 and 1.13
Oc1ccc2c3c1O[C@H]1[C@@H](O)CC[C@@]4(O)[C@@H](C2)N(CC2CCC2)CC[C@]314 | 1.19 and 0.972 | 0.911 and 0.877

SMILES | PER2::LUC luminescence (time after treatment 24 h) | PER2::LUC luminescence (time after treatment 30 h)
COC1=CC(=O)O[C@@H](/C=C/c2ccccc2)C1 | 1.28 | 1.35
O=C1NCN(c2ccccc2)C12CCN(CCCOc1ccc(F)cc1)CC2 | 0.919 | 0.845
CN1CCc2cc3c(cc2[C@H]1[C@@H]1OC(=O)c2c1ccc1c2OCO1)OCO3 | 0.971 | 0.973
OCc1cnc[nH]1 | 0.91 | 0.672
Cc1nc(-c2ccc(-c3ccc(C(=O)N4CCc5cc6c(cc54)C4(CCN(C)CC4)CO6)cc3)c(C)c2)no1 | 0.759 | 0.749
CC12NC(Cc3ccccc31)c1ccccc12 (single isomer, unassigned; (+)) | 0.911 | 0.826
CC(C)c1cccc(C(C)C)c1O | 1.05 | 1
Cc1nccc2c1[nH]c1cc(O)ccc12 | 0.857 | 0.907
CCCCCCCCCOc1ccc2[nH]cc(CCN)c2c1 | 1.05 and 0.639 | 1.2 and 0.636
N[C@H](CO)Cc1ccccc1 | 1.04 | 0.993
C[C@]1(C(=O)O)CCC[C@]2(C)c3cc(O)ccc3CC[C@@H]12 | 0.96 | 0.968
CCCN1CCC[C@@H]2Cc3n[nH]cc3C[C@H]21 (racemic) | 0.965 | 0.942
CCCN1CCC[C@@H]2Cc3n[nH]cc3C[C@H]21 | 0.868 | 0.918
Cc1[nH]c2ccccc2c1CN(C)C | 0.685 | 0.678
CC(=O)N[C@H]1CN2CC[C@H](O)[C@@H]2[C@@H](O)[C@@H]1O | 0.879 | 0.825
NC(=O)CI | 1.59 | 1.31
C[C@]12CCC(=O)C=C1C=C[C@@H]1[C@@H]2CC[C@@]2(C)[C@H]1CC[C@@]2(O)CCC(=O)O | 0.882 and 0.981 | 1.03 and 0.896
CC(=O)O[C@@H]1[C@H]2CC[C@H]3[C@@](C)(O)[C@@H]4C[C@H](O)C(C)(C)[C@@]4(O)[C@H](O)C[C@@]13C[C@@]2(C)O | 0.97 | 0.959
CC[C@@H](C(=O)[C@@H](C)[C@@H](O)[C@H](C)[C@@H]1O[C@@H]([C@@H](CC)C(=O)O)CC[C@@H]1C)[C@H]1O[C@]2(C=C[C@@H](O)[C@]3(CC[C@@](C)([C@H]4CC[C@](O)(CC)[C@H](C)O4)O3)O2)[C@H](C)C[C@@H]1C | 0.228 and 0.178 | 0.21 and 0.133
COc1ccc2[nH]c3c(c2c1)CCNC3 | 1.05 | 1.22
CO[C@H]1[C@H](O)[C@H](O[C@H]2CC[C@@]3(C=O)[C@H](CC[C@@H]4[C@@H]3CC[C@]3(C)[C@@H](C5=CC(=O)OC5)CC[C@]43O)C2)O[C@@H](C)[C@@H]1O | 1.03 | 1.06
Cc1cccc(C)c1NC(=O)CN1CCCC1=O | 0.997 | 0.945
CS(=O)(=O)Nc1ccc(Cc2noc(-c3ccc4[nH]cc(CCN)c4c3)n2)cc1 | 0.892 | 0.944
Cc1cccc(Cc2c[nH]cn2)c1C | 1.06 | 1.07
CN1CC[C@]2(CCN3CCc4c(oc5ccccc45)[C@@H]3C2)N(C)C1=O | 0.945 | 0.891
